Measured values: the supplement of paper PMC8728848
The other results are listed elsewhere or left out.

What was measured:
Assay in all cases: glycan array binding signal (z-score within array); higher = stronger binding
Details in all cases: glycan notation: IUPAC condensed, linker removed; mutation: R82H, R255H
[1] = molecular target: Neu5Ac(a2-6)GlcNAc(b1-4)GlcNAc(b1-4)GlcNAc
Method in brief: (§1)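 The binding signal is a Z-score computed within each array. Data were drawn from 3228 arrays in the Consortium for Functional Glycomics database, restricted to those with a known protein sequence. Scores were averaged over arrays of the same protein sequence at different concentrations or buffers, and over linkers, and negative values can be taken as non-binding.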

Neu5Ac(a2-8)Neu5Ac = molecular target: Neu5Ac(a2-8)Neu5Ac
Method in brief: as §1

[2] = molecular target: Neu5Ac(a2-8)Neu5Ac(a2-3)Gal(b1-3)GalNAc(b1-4)[Neu5Ac(a2-3)]Gal(b1-4)Glc
Method in brief: as §1

[3] = molecular target: Neu5Ac(a2-8)Neu5Ac(a2-3)Gal(b1-3)GalNAc(b1-4)[Neu5Ac(a2-8)Neu5Ac(a2-3)]Gal(b1-4)Glc
Method in brief: as §1

[4] = molecular target: Neu5Ac(a2-8)Neu5Ac(a2-3)Gal(b1-4)Glc
Method in brief: as §1

[5] = molecular target: Neu5Ac(a2-8)Neu5Ac(a2-3)Gal(b1-4)GlcNAc
Method in brief: as §1

[6] = molecular target: Neu5Ac(a2-8)Neu5Ac(a2-3)[Gal(b1-3)GalNAc(b1-4)]Gal(b1-4)Glc
Method in brief: as §1

[7] = molecular target: Neu5Ac(a2-8)Neu5Ac(a2-3)[GalNAc(b1-4)]Gal(b1-4)Glc
Method in brief: as §1

[8] = molecular target: Neu5Ac(a2-8)Neu5Ac(a2-8)Neu5Ac
Method in brief: as §1

[9] = molecular target: Neu5Ac(a2-8)Neu5Ac(a2-8)Neu5Ac(a2-3)Gal(b1-4)Glc
Method in brief: as §1

[10] = molecular target: Neu5Ac(a2-8)Neu5Ac(a2-8)Neu5Ac(a2-3)[Gal(b1-3)GalNAc(b1-4)]Gal(b1-4)Glc
Method in brief: as §1

[11] = molecular target: Neu5Ac(a2-8)Neu5Ac(a2-8)Neu5Ac(a2-3)[GalNAc(b1-4)]Gal(b1-4)Glc
Method in brief: as §1

[12] = molecular target: Neu5Ac(a2-8)Neu5Ac(a2-8)Neu5Ac(a2-8)Neu5Ac(a2-3)[GalNAc(b1-4)]Gal(b1-4)Glc
Method in brief: as §1

[13] = molecular target: Neu5Ac(a2-8)Neu5Gc(a2-3)Gal(b1-4)GlcNAc
Method in brief: as §1

[14] = molecular target: Neu5Ac(b2-6)Gal(b1-4)GlcNAc
Method in brief: as §1

Neu5Ac(b2-6)GalNAc = molecular target: Neu5Ac(b2-6)GalNAc
Method in brief: as §1

[15] = molecular target: Neu5Ac9Ac(a2-3)Gal(b1-3)GlcNAc
Method in brief: as §1

[16] = molecular target: Neu5Ac9Ac(a2-3)Gal(b1-4)GlcNAc
Method in brief: as §1

[17] = molecular target: Neu5Ac9Ac(a2-6)Gal(b1-4)GlcNAc
Method in brief: as §1

[18] = molecular target: Neu5Gc(a2-3)Gal(b1-3)GlcNAc
Method in brief: as §1

[19] = molecular target: Neu5Gc(a2-3)Gal(b1-3)[Fuc(a1-4)]GlcNAc
Method in brief: as §1

Neu5Gc(a2-3)Gal(b1-4)Glc = molecular target: Neu5Gc(a2-3)Gal(b1-4)Glc
Method in brief: as §1

[20] = molecular target: Neu5Gc(a2-3)Gal(b1-4)GlcNAc
Method in brief: as §1

[21] = molecular target: Neu5Gc(a2-3)Gal(b1-4)GlcNAc(b1-3)Gal(b1-4)GlcNAc(b1-2)Man(a1-3)[Neu5Gc(a2-3)Gal(b1-4)GlcNAc(b1-3)Gal(b1-4)GlcNAc(b1-2)Man(a1-6)]Man(b1-4)GlcNAc(b1-4)GlcNAc
Method in brief: as §1

[22] = molecular target: Neu5Gc(a2-3)Gal(b1-4)[Fuc(a1-3)]GlcNAc
Method in brief: as §1

[23] = molecular target: Neu5Gc(a2-6)Gal(b1-4)GlcNAc
Method in brief: as §1

Neu5Gc(a2-6)GalNAc = molecular target: Neu5Gc(a2-6)GalNAc
Method in brief: as §1

[24] = molecular target: Neu5Gc(a2-8)Neu5Ac(a2-3)Gal(b1-4)GlcNAc
Method in brief: as §1

[25] = molecular target: Neu5Gc(a2-8)Neu5Gc(a2-3)Gal(b1-4)GlcNAc
Method in brief: as §1

[26] = molecular target: Neu5Gc(a2-8)Neu5Gc(a2-3)Gal(b1-4)GlcNAc(b1-3)Gal(b1-4)GlcNAc
Method in brief: as §1

[27] = molecular target: Neu5Gc(a2-8)Neu5Gc(a2-6)Gal(b1-4)GlcNAc
Method in brief: as §1

[28] = molecular target: Neu5Gc(b2-6)Gal(b1-4)GlcNAc
Method in brief: as §1

B1: Gal 8 (Mus musculus), Q9JL15 (protein)
chain: MGGSHHHHHHGMASMLSLNNLQNIIYNPIIPYVGTITEQLKPGSLIVIRGHVPKDSERFQVDFQLGNSLKPRADVAFHFNPHFKRSSCIVCNTLTQEKWGWEEITYDMPFRKEKSFEIVFMVLKNKFQVAVNGRHVLLYAHRISPEQIDTVGIYGKVNIHSIGFRFSSASALPHTLGDLQSMETSALGLTQINRENIQKPGKLQLSLPFEARLNASMGPGRTVVIKGEVNTNARSFNVDLVAGKTRDIALHLNPHLNVKAFVRNSFLQDAWGEEERNITCFPFSSGMYFEMIIYCDVREFKVAINGVHSLEYKHRFKDLSSIDTLSVDGDIRLLDVRSW
glycan array binding signal (z-score) [1]: -0.275 | glycan array binding signal (z-score) (Neu5Ac(a2-8)Neu5Ac): -0.216 | glycan array binding signal (z-score) [2]: -0.246 | glycan array binding signal (z-score) [3]: -0.279 | glycan array binding signal (z-score) [4]: -0.187 | glycan array binding signal (z-score) [5]: -0.278 | glycan array binding signal (z-score) [6]: -0.279 | glycan array binding signal (z-score) [7]: -0.268 | glycan array binding signal (z-score) [8]: -0.265 | glycan array binding signal (z-score) [9]: -0.253 | glycan array binding signal (z-score) [10]: -0.239 | glycan array binding signal (z-score) [11]: -0.27 | glycan array binding signal (z-score) [12]: -0.26 | glycan array binding signal (z-score) [13]: -0.268 | glycan array binding signal (z-score) [14]: -0.267 | glycan array binding signal (z-score) (Neu5Ac(b2-6)GalNAc): -0.275 | glycan array binding signal (z-score) [15]: 0.235 | glycan array binding signal (z-score) [16]: -0.275 | glycan array binding signal (z-score) [17]: -0.254 | glycan array binding signal (z-score) [18]: -0.22 | glycan array binding signal (z-score) [19]: -0.233 | glycan array binding signal (z-score) (Neu5Gc(a2-3)Gal(b1-4)Glc): -0.133 | glycan array binding signal (z-score) [20]: -0.335 | glycan array binding signal (z-score) [21]: -0.254 | glycan array binding signal (z-score) [22]: -0.215 | glycan array binding signal (z-score) [23]: -0.251 | glycan array binding signal (z-score) (Neu5Gc(a2-6)GalNAc): 0.261 | glycan array binding signal (z-score) [24]: -0.28 | glycan array binding signal (z-score) [25]: -0.259 | glycan array binding signal (z-score) [26]: -0.284 | glycan array binding signal (z-score) [27]: -0.279 | glycan array binding signal (z-score) [28]: -0.199
